# Measured values from the supplement of paper PMC11417369.
# The other results are listed elsewhere or left out.
# Tested on: PfHDP1 homeodomain (GST-tagged)
# Experiment: gcPBM binding intensity (ln(normalized median fluorescence intensity)); higher = stronger DNA binding
# Outline: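 Alexa488 anti-GST antibody, scanned at 488 nm, detected GST-tagged P. falciparum DNA-binding domains that had been expressed in E. coli and incubated for 1 h on an Agilent 4 × 180k array. The array carried primer-extended double-stranded 36-bp intergenic genomic probes and negative controls. Binding intensity is the highest Masliner-normalised natural-log median intensity across replicate spots of either orientation of each probe.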
row,Sequence,gcPBM binding intensity (ln)
1,CATTTTTACCGGTACTGTACATAAAAAAAAAAAAAG [XGTACX_site1548],6.54
2,AAAAAAATGAAGAAATGTACAAATTTCATTAATTTT [XGTACX_site354],6.05
3,GTGTAGTAAAATCGATGTACGTACAAATCAATTATT [XGTACX_site7662],6.46
4,TATATATGTAAATGCACACATATGTGGATATACTTA [CACACA_site1699],10.3
5,GCGAGATGCTAAAATGCATGTTGGGCATTAGTTAAA [TGCATGCA_site586],6.32
6,TATAATAATTCTTTGAGTACTTAAACATGTGAAATT [XGTACX_site955],7.08
7,ATATTAATATATGTGGCACACATGTGGAGTCCTATT [CACACA_site213],6.93
8,TATCATTTCTAAAAAGGTACACATACATCATATATT [XGTACX_site3386],6.68
9,TGAACAGACAAATACACACACTCAAAAAAAAAAAAG [CACACA_site7287],6.49
10,GCACTCGTAAAAAGCACACATATAAAAACATTTATA [CACACA_site322],6.49
11,CAATGCTTTATCAATACATGCATATATATAGAAATA [TGCATGCA_site857],6.46
12,TTCTTTTTTCAACACACACACACAAGAAAATATATA [CACACA_site9019],7.1
13,CAAAGAGAAATAAACACACACAAAATAAAGAAAAAA [CACACA_site2245],6.9
14,AAAAAAAAAAAAAAAACACACATATAGATTTATATA [CACACA_site7196],6.64
15,TTTTTTCTATTGAGCACACATATCACGATTAGTACT [CACACA_site313],7.41
16,GCTCAATTTTTGGGTACACACAAATGTATAATAATA [CACACA_site2388],6.72
17,ATATATATTATTTCTACACACATATATATAATATGT [CACACA_site3374],6.9
18,AATTAAATTACTTATACACACATAAAATGCCTGTAT [CACACA_site6597],6.47
19,TTATGATATATTTGTTGTACGCTTTTTTTATGAACT [XGTACX_site573],6.88
20,CATTATGTTGTAAATGCACACATACAAATACATATA [CACACA_site8380],9.89
21,GTAAGTTGTGCATTCACACACATATAAATATAAATA [CACACA_site7536],9.03
22,AACACATACATATATACACACACAAAATAATAAAAT [CACACA_site8724],6.98
23,ATGACCCACTTTTCTGCACACATAAAAAATATATAA [CACACA_site8092],8.54

row,Sequence,gcPBM binding intensity (ln)
1,TTAACAAAACTTTTAACACACAAAAAAAAAAAAAAA [CACACA_site6947],6.45
2,CTATAATAATAAAGTGAACACACACCGATAATATAT [CACACA_site9377],6.65
3,ATTTTCAAATTCTATGCATGTGTATATTATAGATAA [TGCATGCA_site1003],6.63
4,AAAATCTATAATATAACACACATATATTCTATATGG [CACACA_site7821],6.29
5,CATACATACAGACACACACACATATAAATACATACA [CACACA_site6533],6.98
6,TTCCTGTTAATTACAACACACAATTCTTATTTTATG [CACACA_site6507],6.99
7,TATAAATAAATGTGTACACACATTAAAATCAAACGT [CACACA_site2340],6.71
8,TTATTTGTATCCATTTCACACATTTTATATAGTATC [CACACA_site5989],6.74
9,TTTTTTGTTATGCGGGTGCATATAATAATGTGATGA,8.99
10,TTTATCAAAAAAAAAAAAAAAAAAAAAAAAAATTGT [CACACA_negctrl_site176],5.83
11,TTATGTGCTTTAAAAGTGCATTTTTTTTTTTTTTTT,7.57
12,TATATGTTTTATAAATGTACATATACTTAAATATTT [XGTACX_site4753],6.43
13,ACTATTAAGAATAAAGAAATATGTAATTGTATTTAA [CACACA_negctrl_site516],6.08
14,AATACATAATAACGTTGTACAAAAATTATAATACAT [XGTACX_site6508],7.04
15,ATATATGTATGTTAGACACACATATTATAATATGTT [CACACA_site116],6.5
16,AAAACGGATTCTTTATAAATAAATAAATAAATATAA [XGTACX_negctrl_site157],6.15
17,AATACATACACAAATACACACACAAATACATACACA [CACACA_site8134],7.26
18,TTTTTTTTTTTTTTTACACACAAATGTATACTATAT [CACACA_site1787],6.6
19,TATTAAATATTCATATGTACATATAGTTTATAAATT [XGTACX_site7455],6.54
20,TTTTAAAAATTAAAAAAATTAAATGTAAAAAAATGA [CACACA_negctrl_site861],6.27
21,ATATATGTATATGTGTGTACATATATGTTTATTATT [XGTACX_site6043],6.49
22,GGACTTAAATAAAATGGTACAGAATTTATATATATT [XGTACX_site8214],6.24
23,TAATGGAATACATATAGTACATAATATTACATACAT [XGTACX_site5737],6.41

row,Sequence,gcPBM binding intensity (ln)
1,GTGTCAAATTTTATAACACACAAAAGATTATATAAG [CACACA_site4086],6.42
2,CCAATATATACATATATATAGTTATATATATTTCCT [TGCATGCA_negctrl_site38],6.31
3,TTTTTTTTTTTTTATTGTACTAGTAGATATATATAC [XGTACX_site3463],6.16
4,TCCTCGCGTAATACTTTTCAAATAAAAAAAATAAAA [TGCATGCA_negctrl_site403],6.24
5,ATTAAAAATTAATATAAACACACAAAAATTAATAAA [CACACA_site8019],6.71
6,AAACATACTTGATGCAGTACACATTATAAGCACATA [XGTACX_site3359],6.62
7,TATATAACATAATATACACACATTATGTGCGTAATT [CACACA_site4073],9.08
8,GTATATCATTTTGGGGTGCTTAAAAATAATGAATAC,7
9,TTTTTTTTTTTTTATTGTACAAAGGTATAAAATAAT [XGTACX_site2396],6.63
10,CATATGTATATGACTACACACAAGGGTGTACAGATA [CACACA_site4776],6.37
11,TATTATTCTGTATTTGCATGTGATCATATATATGTA [TGCATGCA_site1053],7.17
12,AAACAAAAAAGTAAGAAAAGGGATGATTGGATCCAA [CACACA_negctrl_site1230],6.28
13,AGATATTATAATTAATGTACAAAAAGAAAAAATAGA [XGTACX_site8964],6.97
14,CATACATACAGACACACACACATATATATATATATA [CACACA_site2920],9.44
15,AACATAAAAATGAACATACACACATATATATATATA [CACACA_site2497],9.2
16,ATAAAAATACAGTTAACACACATGTGGATATATATG [CACACA_site3771],7.31
17,ATTTATTCATAGACAACAAGAAAAAAAAAAAAAATT [CACACA_negctrl_site1168],6.12
18,AGTTTTCCATGTTAATGTACTTAACAATACCATAAT [XGTACX_site209],6.97
19,TATATCCATATTGTATGTACACATATAATACCAATG [XGTACX_site7230],6.4
20,GTATTATCTTTTAATAGTACATATTTTTTTGAAACA [XGTACX_site4050],5.98
21,CATATAATATTTGAAACTATATATAAATATAAGGTA [TGCATGCA_negctrl_site19],6.2
22,AATATATTTTTATATTGTACAAAAGAAAAAAAATAT [XGTACX_site1689],6.89
23,TTTTTAATTTATTAAGAAGTAAAGAATAACTCTTTT [TGCATGCA_negctrl_site101],5.57

row,Sequence,gcPBM binding intensity (ln)
1,AAACATTAAAATAACTCACACATTTTTCTAGTCTTC [CACACA_site4612],6.19
2,ATATAATGATAATATTGTACATGTTATATTTCAATA [XGTACX_site8645],6.36
3,ATATATTTAATATTCACACATAATTATTTTTACTCT [CACACA_site5438],6.68
4,TTGTAATATCTTGTCACACATATATATATATATATA [CACACA_site4937],9.39
5,TATAGATAAGAATATGCACACATTTTATTTTTTTTT [CACACA_site1982],9.62
6,TGATTAAAAGAGGGAAAAAAAAAAAAAAAAAAAAAA [CACACA_negctrl_site896],6.29
7,TTCTTTTTTAAACACACACACACAAGAAAATATATA [CACACA_site5680],7.18
8,TGACGAAAAAAAAGGGTGCTTAGTATAACTTTAAAG,6.1
9,TATAAAGGTGAAATTTGTACATAGTCATTTTTTAAT [XGTACX_site4811],6.54
10,TCGACAAATGTATATACACACATTTGTAACATAAAT [CACACA_site560],6.57
11,ATATATATATATATATGTACTTAATATTTCTTATTT [XGTACX_site6206],9.15
12,TTATTCAGAAAAAAAAAAAAAAAAAAAAAAAAAAAA [CACACA_negctrl_site1662],6.2
13,GAGAAGACATTACACAGTACCCAGGAAATCTACGGA [XGTACX_site1993],6.15
14,ATATGTAAAGAAAAGTAAACACTAATTTTAAACAAT [CACACA_negctrl_site11],6.41
15,TATATATATGTGCAGTGTACTTTTTTTTTCTGTAAG [XGTACX_site3424],7.11
16,ATTTTTAATATTATTACACACACTAATAAAAAAAAA [CACACA_site8265],6.48
17,TTTTTTTTAATTGTGATACGTATATTATTTTTTGAT [TGCATGCA_negctrl_site318],6.43
18,ATATAATTATATAAATGTACTCATTCGTTATTTTGC [XGTACX_site6132],6.16
19,TATATTAAGTATAAGACACACATATAGTAATAGAAA [CACACA_site5176],6.34
20,TTATAAAAAAAAATAACACACAGACATAAGAATAAA [CACACA_site9383],6.84
